Data on 42 sequences can be found in paper PMC7819943, “Rice protein-binding microarrays: a tool to detect cis-acting elements near promoter regions in rice”.

The other results are listed elsewhere or left out.

The target in the assay is T1, OsWOX13 (Oryza sativa, UniProt Q5QMM3 1-267).
T1 sequence: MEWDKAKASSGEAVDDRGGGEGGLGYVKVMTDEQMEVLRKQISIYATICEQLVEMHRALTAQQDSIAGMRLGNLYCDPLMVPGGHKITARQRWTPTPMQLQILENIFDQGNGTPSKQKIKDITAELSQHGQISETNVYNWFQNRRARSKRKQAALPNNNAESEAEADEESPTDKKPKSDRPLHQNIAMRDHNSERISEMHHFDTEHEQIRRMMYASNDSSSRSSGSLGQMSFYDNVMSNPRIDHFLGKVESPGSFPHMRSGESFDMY
Kind of assay: protein-binding microarray (RPBM); PBS, 2% BSA, 51.3 ng/ul salmon testes DNA, 50 uM zinc acetate, 200 nM TF, 25 C, 1 h; high values mean tight binding. Particulars: protein: recombinant; tags: N-terminal polyhistidine and DsRed monomer fusion (pET32a); label: CyDye5-dUTP incorporated in the synthesized complementary strand; 3' TTTTT single-stranded linker to array surface; dsDNA, one strand shown. The gist of the method: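 Polyhistidine-tagged DsRed fusions of transcription factors, joined at the N-terminus, were expressed in E. coli BL21-CodonPlus and isolated on Ni–NTA. They were incubated at 200 nM for 1 h at 25 °C on a custom Agilent array, double-stranded and BSA-blocked, in PBS with 2% BSA, salmon testes DNA and 50 µM zinc acetate. The binding signal is per-feature fluorescence intensity (arbitrary units) read on an Axon 4000B scanner after washing.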
On to “TCATAATTATAATTGCCATCTCTACTTGGTATCAGGTACACGGAGTCACCTAGTGCAG”, for which the binding signal is 26700 fluorescence intensity (a.u.).

Take “CCAAAACTAATTTATAAAATACTTTCTCGAAATCCCCGGACGGAGTCACCTAGTGCAG”: the binding signal is 19200 fluorescence intensity (a.u.).

As for “TACAATGTAATTAGTCTAATTCAGTAACATATTTTAAGAGCGGAGTCACCTAGTGCAG”, the binding signal was 15800 fluorescence intensity (a.u.).

For “GTTAATTAGCTAATTTGGGTGAATCCATCCATCCATCCAACGGAGTCACCTAGTGCAG”, the binding signal is 40700 fluorescence intensity (a.u.).

“CAAAATTGTTTGGTTATTTTGAAGTCCGAGGGAGTACTGTCGGAGTCACCTAGTGCAG”: the binding signal is 6490 fluorescence intensity (a.u.).

Take “TTGGTAATAATTTGTTCAAATTTAACAAAATTTATCAAAACGGAGTCACCTAGTGCAG”: the binding signal was 11000 fluorescence intensity (a.u.).

“CCAAGGTGATTACGCCACCTTCTCGCCTTCCTCGTGTATACGGAGTCACCTAGTGCAG”: the binding signal was 6020 fluorescence intensity (a.u.).

Turning to “TGACTATGATTTGGAAGACTTTTGTCAGCTAATTCATGTACGGAGTCACCTAGTGCAG”, the binding signal is 8550 fluorescence intensity (a.u.).

On to “TCTGGATTGGCCTTCCAGATTTGCAGTTAGAGACTCAAGACGGAGTCACCTAGTGCAG”, for which the binding signal is 6750 fluorescence intensity (a.u.).

On to “CCTTGACAAAATTTCCTCCACCCATTCCCTTCTCCACCCACGGAGTCACCTAGTGCAG”, for which the binding signal is 19000 fluorescence intensity (a.u.).

As to “ATCTTATCTAATTAGACGACCTACGAACATCTCAAATCGTCGGAGTCACCTAGTGCAG”, the binding signal is 15900 fluorescence intensity (a.u.).

In the case of “GATATAATTGGTATTATTACTAGGTTGGTGTGATATCCTACGGAGTCACCTAGTGCAG”, the binding signal is 27400 fluorescence intensity (a.u.).

Take “TTATAATTGGTTAGGATAAAAGAGCATGTAGAAAATTTAACGGAGTCACCTAGTGCAG”: the binding signal was 11100 fluorescence intensity (a.u.).

As to “CTTGATTTCACAAAATTTAGCAGGCAAAATTTGCTACTCCCGGAGTCACCTAGTGCAG”, the binding signal is 27100 fluorescence intensity (a.u.).

For “ATTAAATTTGGTTTGCAGTGTTCGCGAAATAAACACGATTCGGAGTCACCTAGTGCAG”, the binding signal is 4780 fluorescence intensity (a.u.).

With “AATTAAATTAATTTACAAATAAAGTAAGTGTGGGAAGAAACGGAGTCACCTAGTGCAG”, the binding signal was 37700 fluorescence intensity (a.u.).

For “TTGATATGTAAATTTCGCGTAATTTCATATGTAGAACAATCGGAGTCACCTAGTGCAG”, the binding signal is 12400 fluorescence intensity (a.u.).

“GTACATTATTCAATTTAGTTGTGTGCATCTAGCTTACTGACGGAGTCACCTAGTGCAG”: the binding signal was 3710 fluorescence intensity (a.u.).

As for “TTTTACATCATTATATTTGATTAGTGCAAATTTGGTCCTTCGGAGTCACCTAGTGCAG”, the binding signal is 14500 fluorescence intensity (a.u.).

Turning to “GATAATTTACTCCAGTTTACTTCTGCCTGCGGATTCCAATCGGAGTCACCTAGTGCAG”, the binding signal was 18800 fluorescence intensity (a.u.).

As for “TTATATAGTTACCAAAATTTGACAGCAAACTAAATGTAGCCGGAGTCACCTAGTGCAG”, the binding signal is 3680 fluorescence intensity (a.u.).

Consider “GAGATTTTGACTGCTTTGGTACCATTCAGTGAGATGACACCGGAGTCACCTAGTGCAG”, for which the binding signal is 5520 fluorescence intensity (a.u.).

Turning to “GGATTTCTTGATTAGGGAAAAGGGGATGTGCAAAACTAAACGGAGTCACCTAGTGCAG”, the binding signal was 7860 fluorescence intensity (a.u.).

Turning to “GAAAATTATTTTCTTGGTTGGTTTCTTAAGAGAGCCGTGTCGGAGTCACCTAGTGCAG”, the binding signal is 5340 fluorescence intensity (a.u.).

As to “ATTTGACAAAATCTTTAAAAGAATTAGGTTTATCGATAAGCGGAGTCACCTAGTGCAG”, the binding signal is 5550 fluorescence intensity (a.u.).

Regarding “GATTAATTTAGAAATTTTGAATTCTATTACATAATGATCACGGAGTCACCTAGTGCAG”, the binding signal was 20600 fluorescence intensity (a.u.).

Regarding “CATCAATTTTCCAAATTTTGCTACCTGTACACAGGAGATCCGGAGTCACCTAGTGCAG”, the binding signal is 6180 fluorescence intensity (a.u.).

As to “TGAGTGATGACAGTAAGTAACTGAATCTGCTGAGTTCTGACGGAGTCACCTAGTGCAG”, the binding signal was 6590 fluorescence intensity (a.u.).

Take “GGGAGAGGTGATGAGTGATTGGAGTAGAGGGGAGATGAGGCGGAGTCACCTAGTGCAG”: the binding signal was 12600 fluorescence intensity (a.u.).

On to “CTAAATTTGTTATTAATAACATTTGGATAAACACTTTTCTCGGAGTCACCTAGTGCAG”, for which the binding signal is 14500 fluorescence intensity (a.u.).

For the sequence “AAATGTTTAATTAATTATAAGAAAATAGGTCGCTCTATTTCGGAGTCACCTAGTGCAG”, the binding signal is 26000 fluorescence intensity (a.u.).

On to “ATAAGATTTGACACCTGATACTGATACTGTCCAGTTTATGCGGAGTCACCTAGTGCAG”, for which the binding signal was 4360 fluorescence intensity (a.u.).

“AGTTTATTCAATCAGTGATATTCCTACGAAATGTTGGATACGGAGTCACCTAGTGCAG”: the binding signal is 18100 fluorescence intensity (a.u.).

For “GACAACTTGATAGAGTGTGACACGCTCTTGTGAATAATCTCGGAGTCACCTAGTGCAG”, the binding signal is 3510 fluorescence intensity (a.u.).

As to “ATGCTAGGGAGATTAGATTGACTGAGATTGCTGAGGGGTACGGAGTCACCTAGTGCAG”, the binding signal was 36600 fluorescence intensity (a.u.).

Take “GATTAATAATGTAAAATTGATGTTACTAGATTTATTATTACGGAGTCACCTAGTGCAG”: the binding signal is 6450 fluorescence intensity (a.u.).

On to “TAGTAAATTACAATTTAATTCCGAAATGTTGGGTGATACACGGAGTCACCTAGTGCAG”, for which the binding signal is 35900 fluorescence intensity (a.u.).

Turning to “GTGGTCCAATCACCCTTTGACCCTTCGCCTCCGTGGCGCCCGGAGTCACCTAGTGCAG”, the binding signal is 3380 fluorescence intensity (a.u.).

For the sequence “TTTAATTTGGTTGACTTACATAGTTAAATAGGAGTACCTACGGAGTCACCTAGTGCAG”, the binding signal was 10600 fluorescence intensity (a.u.).

Consider “TTGATCATCTACCAATTAAGTGTACTAATTTGGATGATAACGGAGTCACCTAGTGCAG”, for which the binding signal is 13600 fluorescence intensity (a.u.).

Regarding “TTTAATTTACAATCTACATGCATGGGCTGGGCCCAACAAGCGGAGTCACCTAGTGCAG”, the binding signal is 18700 fluorescence intensity (a.u.).

In the case of “GTCTTCTTAAAATTAATCACTATGATGAAATGACCTCTAACGGAGTCACCTAGTGCAG”, the binding signal was 3570 fluorescence intensity (a.u.).
